Data: PubChem BioAssay (Tox21)
“And” between values parts separate entries of the source, which are not always exact repeats. Identical values can stand only once. Inconclusive means that the source gave no clear call. Such entries were picked first, then a sample of the others. A potency beside an inconclusive call is a rough fit, not a confirmed value. The source holds several records for some structures; these can differ, active in one and inactive in another. The source made the active and inactive calls. Unless noted, calls come from the whole dose curve.

Columns and labels:
[1] = qHTS assay to identify small molecule agonists or antagonists of the thyroid stimulating hormone receptor (TSHR) signaling pathway - wild type cell line counter screen (AID 1259384); settings: HEK293 wild type, cAMP HTRF counter-screen; cAMP activity change: at 92.4 µM (top of the series), stronger effect = higher value unless noted; for cAMP activity change: % is set by controls: 0 for no effect and ±100 for the full control effect
How it was run: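 Wild-type Hek293 cells, 800/well, 18 h at 37C, then compound with Ro20-1724 for 30 min RT. cAMP by HTRF (cAMP-d2/anti-cAMP cryptate), 1 h RT, fluorescence read. 15 concentrations, triplicates.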

[2] = biological target: Thyrotropin receptor (Homo sapiens) (UniProt P16473); test: qHTS assay to identify small molecule antagonists of the thyroid stimulating hormone receptor (TSHR) signaling pathway (AID 1259385); settings: TSHR-HEK293 cAMP HTRF, TSH-stimulated antagonist mode; activity change, negative = inhibition: at 92.4 µM (top of the series) unless noted; note: nearly all actives have a fitted effect of over 20% in size
How it was run: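 TSHR-HEK293 cells (800/well) plated 18 h, then compounds with Ro20-1724 and TSH at 1.5 ng/mL final, 30 min at room temperature. cAMP quantified by HTRF (cAMP-d2/anti-cAMP-cryptate, 1 h); 15 concentrations in triplicate.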

[3] = biological target: Progesterone receptor (Homo sapiens) (UniProt P06401); test: qHTS assay to identify small molecule antagonists of the progesterone receptor (PR) signaling pathway (AID 1346795; active = well fitted inhibition curve with a large enough effect in the signal ratio in the repeat runs, not every such curve was filed as active; inconclusive = weak or mixed curves; the % refers to the signal ratio; for activity change, negative = inhibition: % is set by controls: 0 for no effect and ±100 for the full control effect); settings: PR-UAS-bla HEK293T, beta-lactamase FRET ratio, 16 h; activity change, negative = inhibition: at 92.4 µM (top of the series) unless noted
How it was run: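 HEK293T PR-UAS-bla reporter cells in charcoal-stripped serum (2%) received compound after a 6 hr settling period, followed by R5020 agonist at 1 nM final; 16 hr incubation preceded the FRET substrate step and fluorescence measurement.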

[4] = biological target: Estrogen receptor (Homo sapiens) (UniProt P03372); test: qHTS assay to identify small molecule agonists of the estrogen receptor alpha (ER-alpha) signaling pathway in the presence of an antagonist (AID 1259383); note: nearly all actives have a fitted effect of over 15% in size
How it was run: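 VM7Luc4E2, endog. ER-alpha + 4×ERE-luc; charcoal-stripped FBS, phenol red-free, 5 d; 24hr plating; +10.0nM ICI-182,780 (final); cpds 15 conc, 22hr, 37C/5% CO2; ONE-Glo luminescence.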

[5] = qHTS assay to identify small molecule agonists of the estrogen receptor alpha (ER-alpha) signaling pathway in the presence of an antagonist - cell viability counter screen (AID 1259386; active = well fitted curve in the direction sought with a large enough effect in the repeat runs; inconclusive = weak or mixed curves; inactive = no such curve, though single readings can be large; an effect the other way counts as inactive or inconclusive;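 note: cells exposed to compounds for 22 h at 37 °C before the viability read; nearly all actives have a fitted effect of over 30% in size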)
How it was run: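 VM7Luc4E2, stripped-serum pre-culture 5 d; 24hr plating; +ICI-182,780 10.0nM final; cpds 15 conc, 22hr, 37C/5% CO2; CellTiter-Fluor added at 21hr, fluorescence 1hr later.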

[6] = qHTS assay to identify small molecule agonists of the progesterone receptor (PR) signaling pathway - cell viability counter screen (AID 1346799); note: nearly all actives have a fitted effect of over 45% in size
How it was run: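 Counter screen for cytotoxicity: compound-treated PR-UAS-bla HEK293T cells (16 hr, 37C, 5% CO2) were assayed with CellTiter-Glo, luminescence measured after 30 min at room temperature.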

[7] = qHTS assay to identify small molecule antagonists of the estrogen receptor beta (ER-beta) signaling pathway - cell viability counter screen (AID 1259382; active = well fitted curve in the direction sought with a large enough effect in the repeat runs; inconclusive = weak or mixed curves; inactive = no such curve, though single readings can be large; an effect the other way counts as inactive or inconclusive; note: nearly all actives have a fitted effect of over 55% in size)
How it was run: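 Cells: ER-beta-UAS-bla HEK293T, 2,000/well, 2% CS-FBS, 6 hr settle. Cpd + E2 (1nM final), 16 hr, 37C/5% CO2. Bla FRET substrate 2 hr RT, then CellTiter-Glo 30 min RT, luminescence.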

[8] = qHTS assay to identify small molecule agonists of the TGF-beta/Smad signaling pathway (AID 1346859; active = well fitted activation curve with a large enough effect in the signal ratio in the repeat runs, not every such curve was filed as active; inconclusive = weak or mixed curves; the % refers to the signal ratio); settings: SBE-bla HEK293T, TGF-beta/Smad beta-lactamase reporter, 5 h; activation: at 76.8 µM (top of the series) unless noted
How it was run: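 Smad-responsive beta-lactamase reporter cells (HEK 293T) received compounds from DMSO stocks after overnight attachment, were incubated 5 hr, then treated 2 hr with FRET substrate before dual-emission fluorescence measurement (405 nm excitation).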

[9] = qHTS assay to identify small molecule antagonists of the progesterone receptor (PR) signaling pathway - cell viability counter screen (AID 1346798; active = well fitted curve in the direction sought with a large enough effect in the repeat runs; inconclusive = weak or mixed curves; inactive = no such curve, though single readings can be large; an effect the other way counts as inactive or inconclusive; note: nearly all actives have a fitted effect of over 50% in size)
How it was run: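 Same-well multiplex: after 16 hr at 37C with compound and R5020 stimulation, HEK293T cells carrying a UAS-bla reporter received LiveBLAzer substrate (2 hr RT), then CellTiter-Glo (30 min RT) for luminescent viability.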

[10] = qHTS assay to identify small molecule antagonists of the TGF-beta/Smad signaling pathway (AID 1346924; active = well fitted inhibition curve with a large enough effect in the signal ratio in the repeat runs, not every such curve was filed as active; inconclusive = weak or mixed curves; the % refers to the signal ratio); settings: SBE-bla HEK293T, TGF-beta/Smad reporter, beta-lactamase ratio; activity, negative = inhibition: at 76.8 µM (top of the series) unless noted
How it was run: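 SBE-bla HEK 293T cells were plated overnight, then received compound in DMSO plus TGF-beta1 (added as a 0.25 ng/mL solution) and were incubated 5 h at 37 C. Beta-lactamase reporter activity was read after 2 h at room temperature with LiveBLAzer B/G FRET substrate (ex 405, em 460/530 nm).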
Potency is the fitted concentration of half-maximal effect; tags give direction and shape of the fitted curve or compound fluorescence and quenching.

Sequence of UniProt P16473 (P16473 whole entry, looked up): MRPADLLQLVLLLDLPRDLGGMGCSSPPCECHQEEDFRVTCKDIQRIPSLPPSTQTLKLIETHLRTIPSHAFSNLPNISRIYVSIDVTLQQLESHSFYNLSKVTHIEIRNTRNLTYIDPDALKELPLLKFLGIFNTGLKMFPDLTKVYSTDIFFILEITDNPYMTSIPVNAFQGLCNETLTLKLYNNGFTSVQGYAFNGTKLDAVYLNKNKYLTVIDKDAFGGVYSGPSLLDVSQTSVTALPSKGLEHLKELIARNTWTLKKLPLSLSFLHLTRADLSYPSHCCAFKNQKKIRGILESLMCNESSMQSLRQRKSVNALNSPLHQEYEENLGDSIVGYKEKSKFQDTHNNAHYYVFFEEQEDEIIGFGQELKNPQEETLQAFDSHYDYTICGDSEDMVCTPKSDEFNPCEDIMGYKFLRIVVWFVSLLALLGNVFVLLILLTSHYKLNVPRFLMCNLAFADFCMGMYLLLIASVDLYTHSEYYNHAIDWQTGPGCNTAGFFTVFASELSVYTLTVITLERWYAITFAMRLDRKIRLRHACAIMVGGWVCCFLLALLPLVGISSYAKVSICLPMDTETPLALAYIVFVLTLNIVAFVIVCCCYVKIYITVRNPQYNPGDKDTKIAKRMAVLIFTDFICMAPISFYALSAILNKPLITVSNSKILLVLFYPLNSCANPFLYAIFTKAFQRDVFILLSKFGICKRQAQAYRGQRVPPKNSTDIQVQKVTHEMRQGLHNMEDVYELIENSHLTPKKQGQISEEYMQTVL
Sequence of UniProt P06401 (P06401 whole entry, looked up): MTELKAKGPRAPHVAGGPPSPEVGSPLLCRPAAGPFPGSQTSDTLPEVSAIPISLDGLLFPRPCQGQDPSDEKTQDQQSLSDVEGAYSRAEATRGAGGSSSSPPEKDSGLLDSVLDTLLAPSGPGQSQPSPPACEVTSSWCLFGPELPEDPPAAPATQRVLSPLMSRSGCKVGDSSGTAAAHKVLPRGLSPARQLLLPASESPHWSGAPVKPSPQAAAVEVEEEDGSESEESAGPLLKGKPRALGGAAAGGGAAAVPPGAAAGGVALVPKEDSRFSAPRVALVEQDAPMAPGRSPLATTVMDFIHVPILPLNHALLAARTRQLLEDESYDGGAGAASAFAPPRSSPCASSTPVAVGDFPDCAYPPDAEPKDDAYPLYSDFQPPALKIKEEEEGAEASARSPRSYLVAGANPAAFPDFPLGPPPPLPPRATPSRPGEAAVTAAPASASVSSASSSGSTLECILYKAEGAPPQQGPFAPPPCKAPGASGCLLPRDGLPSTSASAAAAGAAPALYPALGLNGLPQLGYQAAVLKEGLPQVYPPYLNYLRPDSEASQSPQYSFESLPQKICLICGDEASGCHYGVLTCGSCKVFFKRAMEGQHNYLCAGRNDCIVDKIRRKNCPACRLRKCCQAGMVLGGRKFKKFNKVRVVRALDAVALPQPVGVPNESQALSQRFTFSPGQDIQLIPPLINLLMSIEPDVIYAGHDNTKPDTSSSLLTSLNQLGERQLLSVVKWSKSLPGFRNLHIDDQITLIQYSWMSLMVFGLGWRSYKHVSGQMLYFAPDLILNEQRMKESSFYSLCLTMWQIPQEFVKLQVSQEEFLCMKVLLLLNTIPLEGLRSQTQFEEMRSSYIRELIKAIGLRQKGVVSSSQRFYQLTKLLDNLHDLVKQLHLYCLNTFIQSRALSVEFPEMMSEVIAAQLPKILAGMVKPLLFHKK
Sequence of UniProt P03372 (P03372 whole entry, looked up): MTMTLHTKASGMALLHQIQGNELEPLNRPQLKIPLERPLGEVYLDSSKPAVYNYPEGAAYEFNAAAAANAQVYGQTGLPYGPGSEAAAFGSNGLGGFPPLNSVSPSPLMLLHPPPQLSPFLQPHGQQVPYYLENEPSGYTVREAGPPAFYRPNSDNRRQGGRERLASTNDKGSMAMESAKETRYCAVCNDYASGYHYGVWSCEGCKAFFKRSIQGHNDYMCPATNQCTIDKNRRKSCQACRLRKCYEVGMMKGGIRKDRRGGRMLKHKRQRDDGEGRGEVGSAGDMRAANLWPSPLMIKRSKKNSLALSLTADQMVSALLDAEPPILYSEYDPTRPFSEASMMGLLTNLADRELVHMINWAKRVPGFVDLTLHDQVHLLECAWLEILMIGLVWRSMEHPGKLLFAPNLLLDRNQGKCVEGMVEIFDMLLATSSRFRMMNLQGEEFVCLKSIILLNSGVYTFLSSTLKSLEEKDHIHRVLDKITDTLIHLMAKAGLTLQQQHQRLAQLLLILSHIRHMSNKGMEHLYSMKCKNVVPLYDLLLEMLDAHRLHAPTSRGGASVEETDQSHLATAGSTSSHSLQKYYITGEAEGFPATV

Cn1c(N)nc2nc[nH]c2c1=O
cAMP activity change [1]: inconclusive: -20.1%
Potency [2]: active: 48 µM
activity change, negative = inhibition [3]: inconclusive: -28.6%

Cc1cc(C2(c3cc(C)c(O)cc3C)OS(=O)(=O)c3ccccc32)c(C)cc1O
Potency [4]: active: 43.3 µM
Potency [1]: inconclusive: 31.8 µM
Potency [2]: inconclusive: 77 µM [falling, single point]
Potency [5]: active: 30.6 µM and active: 21.7 µM
Potency [3]: active: 61.1 µM
activity change, negative = inhibition [3]: inconclusive: -23.1%
Potency [6]: inconclusive: 68.6 µM [rising, single point]

C=C[C@H]1CN2CC[C@H]1C[C@@H]2[C@@H](O)c1ccnc2ccc(OC)cc12
Potency [7]: inconclusive: 60.1 µM [cytotoxic, single point]
Potency [5]: inconclusive: 26.9 µM [cytotoxic, partial curve, poor fit]
Potency [6]: inconclusive: 53.6 µM [cytotoxic, partial curve, poor fit] and inactive
Potency [8]: inconclusive: 68.1 µM [rising, partial curve, poor fit]

CC1=C(Br)C(=O)C(Br)=C/C1=C(/c1ccccc1S(=O)(=O)O)c1cc(Br)c(O)c(Br)c1C
Potency [1]: inconclusive: 6.84 µM
Potency [2]: inconclusive: 7.39 µM [falling, partial curve]
Potency [5]: active: 18.6 µM

O=C=Nc1ccc(Cl)c(Cl)c1
Potency [7]: inconclusive: 75.7 µM [cytotoxic, partial curve, poor fit]
Potency [3]: inconclusive: 47.8 µM [falling, partial curve]
Potency [9]: inconclusive: 67.5 µM [cytotoxic, single point]

c1ccc2cc3c(ccc4ccccc43)cc2c1
Potency [4]: inconclusive: 24.4 µM [activator, full curve, poor fit] and inconclusive: 30.6 µM [activator, partial curve]
Potency [3]: inconclusive: 12.2 µM [rising, full curve] and inconclusive: 13.7 µM [rising, full curve]

OC(CCN1CCCC1)(c1ccccc1)C1CCCCC1 (stereo unspecified)
Potency [2]: inconclusive: 26.6 µM [falling, partial curve]

CCCCC[C@H](O)/C=C/[C@H]1[C@H](O)CC(=O)[C@@H]1C/C=C\CCCC(=O)O
Potency [1]: active: 0.0174 µM
Potency [8]: inconclusive: 23.9 µM [rising, partial curve]
Potency [10]: inconclusive: 23.9 µM [fluorescent]
